According to PubChem BioAssay AID743449 (Broad Institute, 2014):
About 90 (0.9%) of roughly 9,900 compounds were called active. The shares of active, inactive and inconclusive entries below differ from those in the screen.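 Rule for the calls: active = mean normalized replicate activity at least 50 and at least half of replicates each reaching 50; inconclusive = only one of the two criteria met; inactive = neither criterion met.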

Experiment: reduction of CTGF mRNA in DLD1 cells – DLD1 colon cancer cells, RT-qPCR, single point, primary screen (AID 743449);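 note: 0% = neutral control wells and 100% = dasatinib control wells; higher means stronger suppression of CTGF expression like dasatinib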
Conditions: 24 h, at 12.5 µM, hits give high values

SMILES	inhibition
CCS(=O)(=O)Nc1ccc2c(c1)C(=O)N(C)[C@@H]1CC[C@H](CC(=O)N[C@@H]3CCN(Cc4ccccc4)C3)O[C@@H]1CO2	inconclusive: -0.964%
C[C@H](CO)N1C[C@H](C)[C@H](CN(C)S(=O)(=O)c2cn(C)cn2)Oc2cc(C#Cc3cccc(F)c3)ccc2S1(=O)=O	inconclusive: 46.9%
CCCNC(=O)N1CC2(C1)CN(C(=O)CN1CCOCC1)[C@@H](CO)c1[nH]c3cc(OC)ccc3c12	inconclusive: 39.7%
COc1cccc(NC(=O)C[C@@H]2CC[C@H]3[C@@H](COc4ccc(NS(=O)(=O)c5cccc(F)c5)cc4C(=O)N3C)O2)c1	inconclusive: 30.1%
C[C@@H]1CN([C@H](C)CO)C(=O)c2cc(N(C)C)ccc2O[C@H]1CN(C)Cc1ccc(Oc2ccccc2)cc1	inconclusive: 40.4%
N#C[C@@H]1[C@H](c2ccc(-c3cccc(F)c3)cc2)[C@H](CO)N1C(=O)NC1CCCC1	inconclusive: 50%
Cc1ccc(S(=O)(=O)N2C[C@@H](O)COC[C@H]3O[C@@H](CC(=O)NCc4ccc5c(c4)OCO5)CC[C@@H]32)cc1	inactive: 25.4%
COc1ccc([C@H]2C/C=C\C[C@H](c3ccc4c(c3)OCO4)NC(=O)[C@H](c3ccccc3)CC(=O)N2)c(OC)c1	inactive: -62.1%
Cc1ccc(S(=O)(=O)Nc2ccc3c(c2)C(=O)N([C@H](C)CO)C[C@@H](C)[C@@H](CN(C)Cc2ccc(C(F)(F)F)cc2)O3)cc1	inconclusive: 29.6%
COCC(=O)N1[C@H](CO)[C@H](c2ccc(C#CC(C)C)cc2)[C@@H]1CNC(C)=O	inactive: 26.8%
CS(=O)(=O)N1CC(=O)N2[C@H](C1)[C@@H](c1ccc(C#Cc3ccc(F)cc3)cc1)[C@@H]2CO	active: 63.2%
CC(C)C#Cc1ccc([C@@H]2[C@@H](CO)N3C(=O)CN(C(=O)Cc4ccccc4)C[C@@H]23)cc1	inconclusive: 43%
C/C=C/c1cccc(-c2nc(C(=O)Nc3nccs3)cc3c2[C@@H](CCO)N(C(=O)NC(C)C)C3)c1	active: 59.6%
N#C[C@@H]1[C@@H](c2ccccc2)[C@H](CO)N1C(=O)c1cc(Cl)cc(Cl)c1	inconclusive: 43.5%
COc1ccc(S(=O)(=O)N(C)C[C@@H]2OCCCC[C@@H](C)Oc3ccc(NC(=O)Cc4ccccc4)cc3C(=O)N([C@@H](C)CO)C[C@H]2C)cc1	inconclusive: 28.2%
Cc1ccc(S(=O)(=O)NCC[C@@H]2CC[C@H](NC(=O)c3cccnc3)[C@@H](CO)O2)cc1	inconclusive: 26.9%
O=C(c1cccc(F)c1)N1CCCCN2[C@H](CO)[C@H](c3ccc(C#CC4(O)CCCC4)cc3)[C@@H]2C1	active: 58.8%
C[C@@H](NC(=O)C[C@@H]1C=C[C@@H](NS(=O)(=O)c2cccc(F)c2)[C@@H](CO)O1)c1ccccc1	inconclusive: 12.5%
C[C@H]1CN([C@@H](C)CO)C(=O)c2cccc(NC(=O)c3ccc(-c4nccs4)cc3)c2O[C@@H]1CN(C)C(=O)Nc1ccc(C(F)(F)F)cc1	active: 72.5%
C[C@@H]1CN([C@H](C)CO)S(=O)(=O)c2ccc(C#Cc3ccccc3F)cc2O[C@@H]1CN(C)C(=O)Cc1cccnc1	inconclusive: 49.4%

SMILES	inhibition
C[C@@H]1CN([C@H](C)CO)C(=O)CCCn2cc(nn2)CO[C@H]1CN(C)C(=O)Nc1ccc2c(c1)OCO2	inconclusive: 23.3%
COc1ccccc1NC(=O)N[C@H]1CC[C@H](CCNS(=O)(=O)c2ccc(Cl)cc2)O[C@H]1CO	inconclusive: 46.2%
Cc1ccccc1-c1ccc([C@H]2[C@H](CO)N3CCCCN(S(=O)(=O)Cc4ccccc4)C[C@@H]23)cc1	inconclusive: 46.6%
CCCNC(=O)N1[C@H](C#N)[C@@H](c2ccc(C#Cc3cccc(F)c3)cc2)[C@@H]1CO	active: 69.7%
CCS(=O)(=O)Nc1ccc2c(c1)C(=O)N(C)C[C@H](OC)[C@H](C)CN(C(=O)c1ccc3c(c1)OCO3)[C@@H](C)CO2	inactive: -9.16%
C[C@H](CO)N1C[C@H](C)[C@H](CN(C)C(=O)CCC(F)(F)F)OCc2cnnn2CCCC1=O	inconclusive: 21.7%
COc1ccc(CNC(=O)C[C@@H]2C=C[C@H](NC(=O)c3cccc(F)c3)[C@H](CO)O2)cc1	inconclusive: 26.1%
C[C@@H]1CCCCO[C@H](CN(C)S(=O)(=O)c2ccccc2)[C@H](C)CN([C@@H](C)CO)C(=O)c2cc(NC(=O)Nc3ccc4c(c3)OCO4)ccc2O1	inconclusive: 46.2%
COc1ccc(S(=O)(=O)Nc2ccc3c(c2)C(=O)N([C@@H](C)CO)C[C@@H](C)[C@H](CN(C)S(=O)(=O)c2ccc(Cl)cc2)OCCCC[C@@H](C)O3)cc1	inconclusive: 48.2%
Cc1noc(C)c1S(=O)(=O)N(C)C[C@@H]1Oc2c(NC(=O)c3ccc(-c4nccs4)cc3)cccc2C(=O)N([C@@H](C)CO)C[C@@H]1C	inconclusive: 42.1%
Cc1ccc(S(=O)(=O)N2CC[C@@H]3[C@H]2c2cc(-c4cccc(C(=O)N(C)C)c4)ccc2N[C@@H]3CO)cc1	active: 68.4%
C[C@H]1CC=CC[C@@H](c2cccc(Cl)c2)NC(=O)[C@H](Cc2ccccc2)N(C)C(=O)c2ccccc2O1 (mixture of isomers)	inconclusive: 37.5%
COc1cccc(S(=O)(=O)N(C)C[C@H]2Oc3cc(Br)ccc3S(=O)(=O)N([C@@H](C)CO)C[C@H]2C)c1	inconclusive: 40.6%
C/C=C/c1cccc(-c2nc(C(=O)N3CCCCC3)cc3c2[C@@H](CCO)N(C(=O)NC(C)C)C3)c1	inactive: -19.7%
CNC[C@H]1Oc2c(NC(=O)Nc3cccc4ccccc34)cccc2C(=O)N([C@H](C)CO)C[C@@H]1C	active: 50.9%
C[C@@H]1CN([C@@H](C)CO)C(=O)c2cccc(NC(=O)c3nc4ccccc4s3)c2O[C@H]1CN(C)C(=O)Nc1ccc2c(c1)OCO2	active: 52.6%
C[C@@H]1CN([C@H](C)CO)C(=O)c2c(c3ccccc3n2C)-c2ccccc2CO[C@@H]1CN(C)Cc1cccc(C(F)(F)F)c1	inconclusive: 49.8%
N#C[C@H]1[C@H](c2ccccc2C2=CCCCC2)[C@H](CO)N1C(=O)c1ccccn1	inconclusive: 21.6%
CCCNC(=O)N1C[C@@H]2[C@H](c3ccccc31)[C@@H](CO)N2Cc1cccc(OC)c1	inactive: -37.6%
N#C[C@@H]1[C@H](c2ccc(C#Cc3cccc(F)c3)cc2)[C@H](CO)N1C(=O)C1CCOCC1	inconclusive: 48.4%

SMILES	inhibition
O=S(=O)(c1ccccc1)N1CCCCN2[C@H](C1)[C@@H](c1ccc(C#CC3CCCC3)cc1)[C@@H]2CO	active: 50.5%
CCCC#Cc1ccc([C@@H]2[C@@H](C#N)N(C(=O)CN3CCOCC3)[C@H]2CO)cc1	inconclusive: 49.1%
C[C@@H]1CN([C@@H](C)CO)C(=O)c2cc(NC(=O)Nc3ccccc3)ccc2O[C@@H](C)CCCCO[C@@H]1CN(C)C(=O)Nc1ccccc1	active: 62.7%
C[C@H](CO)N1C[C@H](C)[C@H](CN(C)Cc2ccc3c(c2)OCCN3C)OCc2cnnn2CCCC1=O	inconclusive: 35.7%
C[C@@H]1CN([C@@H](C)CO)C(=O)c2cccc(NS(=O)(=O)c3ccc(F)cc3)c2O[C@@H]1CN(C)Cc1ccc(Cl)c(Cl)c1	inactive: -11.4%
NCC[C@H]1CC[C@@H](NC(=O)NC2CCCCC2)[C@H](CO)O1	active: 53%
C[C@H](CO)N1C[C@H](C)[C@@H](CN(C)S(=O)(=O)c2ccc(Cl)cc2)Oc2c(NC(=O)Nc3ccc(F)cc3)cccc2C1=O	inconclusive: 42.6%
O=C(O)C[C@H]1C[C@H]2c3cc(NC(=O)Cc4ccncc4)ccc3O[C@H]2[C@@H](CO)O1	inconclusive: 26.5%
C[C@H]1CN([C@@H](C)CO)C(=O)c2c(c3ccccc3n2C)-c2ccccc2CO[C@@H]1CN(C)S(=O)(=O)c1ccc([N+](=O)[O-])cc1	inactive: 23.9%
O=C(Nc1ccccc1)[C@H]1[C@H](CO)[C@H]2Cn3c(cccc3=O)[C@@H]1N2C(=O)c1ccc(F)cc1	inactive: 11.4%
C[C@H](CO)N1C[C@H](C)[C@@H](CN(C)C(=O)c2ccc(N3CCN(C)CC3)cc2)OCc2cn(nn2)CCCC1=O	inconclusive: -9.74%
CO[C@@H]1CN(C)C(=O)c2cc(NC(=O)Nc3ccccc3F)ccc2OC[C@@H](C)N(C(=O)c2cnccn2)C[C@H]1C	inconclusive: 25.4%
C[C@@H]1CN([C@@H](C)CO)C(=O)CCCn2nncc2CO[C@@H]1CN(C)C(=O)c1cc(-c2ccccc2)on1	active: 55.9%
C[C@H]1CN([C@@H](C)CO)S(=O)(=O)c2ccc(C#Cc3ccccc3F)cc2O[C@@H]1CN(C)C(=O)Cc1cccnc1	inconclusive: 43.1%
COc1cccc(-c2ccc([C@H]3[C@@H](CO)N(C(=O)Cc4ccncc4)[C@H]3C#N)cc2)c1	inactive: -2.53%
COc1ccc(S(=O)(=O)Nc2ccc3c(c2)C(=O)N([C@@H](C)CO)C[C@@H](C)[C@@H](CN(C)S(=O)(=O)c2ccc(Cl)cc2)OCCCC[C@H](C)O3)cc1	inconclusive: 25.9%
C[C@@H]1CN([C@H](C)CO)S(=O)(=O)c2ccc(C#Cc3cccc(F)c3)cc2O[C@H]1CN(C)S(=O)(=O)c1cn(C)cn1	inconclusive: 44.7%
C[C@@H]1CN([C@@H](C)CO)C(=O)Cc2cc(NC(=O)C3CCCCC3)ccc2O[C@@H]1CN(C)Cc1ccc(Cl)c(Cl)c1	active: 50.3%
